# Measurements from the antibiotic and cytotoxicity screens of Wong et al. (2023).
# Some of the results follow.
# System: HSkMC (human skeletal muscle cells)
# Experiment: cytotoxicity call (relative viability < 0.9)
# Details: 10 µM
row,SMILES,cytotoxicity call
1,C[C@@H]1CN([C@@H](C)CO)S(=O)(=O)c2ccc(Br)cc2O[C@@H]1CN(C)C(=O)c1ccccn1,inactive
2,CCC(=O)N(C)C[C@H]1Oc2ncc(C#C[C@H](C)O)cc2C(=O)N([C@H](C)CO)C[C@H]1C,inactive
3,COc1ccc(CN(C)C[C@H]2Oc3ccc(NC(=O)CCCCCC(=O)Nc4ccccc4N)cc3CC(=O)N([C@@H](C)CO)C[C@H]2C)cc1,inactive
4,Cc1noc(C)c1NC(=O)N(C)C[C@H]1OCCCC[C@H](C)Oc2ccc(NC(=O)Cc3ccccc3)cc2C(=O)N([C@H](C)CO)C[C@@H]1C,inactive
5,C[C@@H]1CN([C@H](C)CO)C(=O)c2cc(C#CC3CCCCC3)cnc2O[C@H]1CN(C)C(=O)Cc1ccccn1,inactive
6,C[C@@H]1CN([C@@H](C)CO)C(=O)c2cc(N(C)C)ccc2O[C@@H](C)CCCCO[C@@H]1CN(C)C(=O)Nc1cccc2ccccc12,inactive
7,C[C@@H]1CN([C@H](C)CO)C(=O)c2cc(NS(=O)(=O)c3ccc(Cl)cc3)ccc2O[C@H]1CN(C)S(C)(=O)=O,inactive
8,C[C@@H]1CN([C@H](C)CO)C(=O)c2cc(NC(=O)Cn3cnnn3)ccc2O[C@@H]1CN(C)S(=O)(=O)c1ccc(F)cc1,inactive
9,NC(=O)CSc1nc(N)cc(N)n1,inactive
10,Cc1cc(C)c(S(=O)(=O)Nc2cc([C@@H](C(=O)OC(C)C)C(=O)C(F)(F)F)c(O)c3ccccc23)c(C)c1,inactive
11,C[C@H](CO)N1C[C@H](C)[C@H](CN(C)S(C)(=O)=O)OCCCC[C@H](C)Oc2ccc(NC(=O)Nc3cccc4ccccc34)cc2C1=O,inactive
12,C[C@@H]1CN([C@H](C)CO)C(=O)c2cc(NC(=O)Nc3ccccc3)ccc2O[C@@H](C)CCCCO[C@@H]1CN(C)C(=O)CCC(F)(F)F,inactive
13,COC(=O)Cn1c(=O)c2c(OC)c(C)cnc2n(C)c1=O,inactive
14,O=C(NCCO[N+](=O)[O-])c1cccnc1,inactive
15,C[C@@H]1CCCCO[C@@H](CN(C)S(=O)(=O)c2cn(C)cn2)[C@H](C)CN([C@H](C)CO)C(=O)c2cc(NC(=O)Nc3ccc(C(F)(F)F)cc3)ccc2O1,inactive
16,C[C@@H]1CN([C@H](C)CO)C(=O)CCCn2nncc2CO[C@H]1CN(C)C(=O)Nc1ccccc1C(F)(F)F,inactive
17,COc1ccc(CN(C)C[C@@H]2OCCCC[C@@H](C)Oc3ccc(NC(=O)c4ccccc4)cc3C(=O)N([C@@H](C)CO)C[C@H]2C)cc1,inactive
18,C[C@H](CO)N1C[C@H](C)[C@H](CN(C)C(=O)Nc2ccc3c(c2)OCO3)OCCCC[C@H](C)Oc2ccc(NC(=O)CCCCCC(=O)Nc3ccccc3N)cc2C1=O,inactive
19,Cc1[nH]c(=O)[nH]c(=O)c1S(=O)(=O)N1CCC(C(=O)NCCC(C)C)CC1,inactive
20,C[C@@H]1CN([C@H](C)CO)C(=O)c2cccc(NC(=O)c3nc4ccccc4s3)c2O[C@H]1CN(C)S(C)(=O)=O,inactive
21,C[C@H](CO)N1C[C@H](C)[C@@H](CN(C)S(=O)(=O)c2cn(C)cn2)Oc2ccc(NC(=O)C3CC3)cc2C1=O,inactive
22,C[C@@H]1CN([C@H](C)CO)C(=O)Cc2cc(NS(C)(=O)=O)ccc2O[C@@H]1CN(C)Cc1ccc2c(c1)OCO2,inactive
23,C[C@@H]1CCCCO[C@@H](CN(C)C(=O)c2ccccc2)[C@@H](C)CN([C@H](C)CO)C(=O)c2cc(NC(=O)Cc3ccccc3)ccc2O1,inactive
24,Cc1noc(C)c1NC(=O)N(C)C[C@@H]1Oc2ccc(NC(=O)CCN3CCOCC3)cc2CC(=O)N([C@@H](C)CO)C[C@@H]1C,inactive
25,C[C@H](CO)N1C[C@H](C)[C@@H](CN(C)S(=O)(=O)c2ccccc2)Oc2cc(Br)ccc2S1(=O)=O,inactive
26,Cc1ccc(S(=O)(=O)Nc2ccc3c(c2)C(=O)N([C@H](C)CO)C[C@H](C)[C@H](CN(C)Cc2ccc(C(F)(F)F)cc2)O3)cc1,inactive
27,C[C@@H]1CCCCO[C@@H](CN(C)Cc2ccc(C(=O)Nc3ccccc3N)cc2)[C@@H](C)CN([C@H](C)CO)C(=O)c2cc(NC(=O)C3CCCCC3)ccc2O1,inactive
28,COc1ccc(S(=O)(=O)Nc2ccc3c(c2)C(=O)N([C@@H](C)CO)C[C@@H](C)[C@@H](CN(C)Cc2ccc4c(c2)OCO4)OCCCC[C@H](C)O3)cc1,inactive
29,Cc1noc(C)c1S(=O)(=O)N(C)C[C@@H]1Oc2ccc(NS(=O)(=O)c3ccccc3)cc2CC(=O)N([C@H](C)CO)C[C@H]1C,inactive
